Data published in the supplement of paper PMC5919970.
Where a name gives a salt, the structure may show the parent alone. Over roughly 2,000 compounds, “fractional viability relative to vehicle” has its median near 0.91; the lowest 2% begin near 0.045. Some of the results follow.

System: TYKNU
Experiment: fractional viability relative to vehicle; TYKNU is a high-grade serous ovarian cancer line; higher = less growth inhibition
Conditions: 72 h
Procedure, shortened: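 TYKNU control cells or lentiCRISPRv2 knockout derivatives were plated at 500 cells per well in duplicate into drug-stamped 384-well plates holding a ~2100-compound library at 2 or 10 μM. Culture was in RPMI 1640 with 10% FBS at 37 °C in 5% CO2, with 72 h of drug treatment. Viability was measured by Cell Titer Glo luminescence, and the averaged duplicate treatment wells were normalised to duplicate control wells at the same plate position.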

[1] = 2uM, genotype: DNM1L knockout (sgDNM1L #1)
[2] = 2uM, genotype: sgCTRLA1 (non-targeting control)
[3] = 10uM, genotype: DNM1L knockout (sgDNM1L #1)
[4] = 10uM, genotype: sgCTRLA1 (non-targeting control)

Compound | fractional viability [1] | fractional viability [2] | fractional viability [3] | fractional viability [4]
O=C1NC(=O)C(c2ccccc2)(c2ccccc2)N1 [Phenytoin] | 0.907 | 1.05 | 0.825 | 1.13
CC(C)(O)c1ccccc1CC[C@@H](SCC1(CC(=O)O)CC1)c1cccc(/C=C/c2ccc3ccc(Cl)cc3n2)c1 [Montelukast Sodium] | 0.809 | 1.13 | 0.762 | 1.05
O=C(Nc1ccccc1Br)N[C@@H]1CCN(c2ccc(C(F)(F)F)cn2)C1 | 0.967 | 1.15 | 0.64 | 0.746
COc1ccc(S(=O)(=O)N(CCO)c2ccccc2CN(C)C/C=C/c2ccc(Cl)cc2)cc1 [KN-93 Phosphate] | 0.727 | 0.888 | 0.332 | 0.333
CN(C)CC(c1ccc(O)cc1)C1(O)CCCCC1 (stereo not drawn) [Desvenlafaxine] | 1.02 | 1.2 | 0.867 | 1.12
CN(C)CC(c1ccc(O)cc1)C1(O)CCCCC1 (stereo not drawn) [Desvenlafaxine Succinate] | 1.01 | 1.06 | 0.834 | 1.07
O=C(NOCC(O)CO)c1cc(Br)c(F)c(F)c1Nc1ccc(I)cc1F (stereo not drawn) | 0.463 | 0.563 | 0.243 | 0.299
C#CCC(Cc1cnc2nc(N)nc(N)c2n1)c1ccc(C(=O)N[C@@H](CCC(=O)O)C(=O)O)cc1 (stereo partly drawn) [Pralatrexate] | 0.325 | 0.314 | 0.19 | 0.307
O=C(C[S+]([O-])Cc1ccco1)NC/C=C\COc1cc(CN2CCCCC2)ccn1 (stereo not drawn) [Lafutidine] | 1 | 1.2 | 0.826 | 1.06
CCN(CC)CCCC(C)Nc1nc(C)cc(Nc2ccc3nc(C)cc(N)c3c2)n1 (stereo not drawn) | 0.927 | 0.862 | 0.802 | 0.667
COc1c(N2CCNC(C)C2)c(F)cc2c(=O)c(C(=O)O)cn(C3CC3)c12 (stereo not drawn) [Gatifloxacin] | 1.02 | 1.24 | 1.21 | 1.09
O=C(c1ccccc1)c1ccc2n1CCC2C(=O)O (stereo not drawn) [Ketorolac] | 0.998 | 1.08 | 0.879 | 0.997
Nc1ncnc2n[nH]c(Nc3ccc(F)cc3)c12 | 1.14 | 1.07 | 0.592 | 0.453
CCn1cc(NC(=S)Nc2cc(Cl)ccc2OC)c(C(N)=O)n1 | 0.866 | 0.968 | 0.864 | 0.829
CC[C@H](C)C[C@H](C)CCCCCCCCC(=O)N[C@H]1C[C@@H](O)[C@@H](NCCN)NC(=O)[C@@H]2[C@@H](O)CCN2C(=O)[C@H]([C@H](O)CCN)NC(=O)[C@H]([C@H](O)[C@@H](O)c2ccc(O)cc2)NC(=O)[C@@H]2C[C@@H](O)CN2C(=O)[C@H]([C@@H](C)O)NC1=O [Caspofungin Acetate] | 0.98 | 1.17 | 0.637 | 1.01
CN(C)Cc1ccc(S(=O)(=O)n2ccc(/C=C/C(=O)NO)c2)cc1 [Resminostat] | 0.674 | 0.662 | 0.0944 | 0.23
c1ccc(CN(CC2=NCCN2)c2ccccc2)cc1 [Antazoline HCl] | 0.795 | 1.07 | 0.744 | 1.04
CN(C)CC/C=C1/c2ccccc2COc2ccc(CC(=O)O)cc21 [Olopatadine HCl] | 0.937 | 1.02 | 0.844 | 1.03
CCCCCCCCCCCC[N+](C)(C)CCOc1ccccc1 [Domiphen Bromide] | 0.558 | 0.882 | 0.0673 | 0.0826

Compound | fractional viability [1] | fractional viability [2] | fractional viability [3] | fractional viability [4]
Cc1ccc(-n2nc(C(C)(C)C)cc2NC(=O)Nc2ccc(OCCN3CCOCC3)c3ccccc23)cc1 [BIRB 796 (Doramapimod)] | 0.868 | 1.12 | 0.869 | 0.992
Cc1cc(OCc2nnc(SC3CCCC3)n2-c2cccnc2)ccc1-c1ccc(S(C)(=O)=O)cc1 | 0.545 | 0.46 | 0.0437 | 0.0922
CNC(=O)c1ccc(C)c(-n2c(C)cc(OCc3ccc(F)cc3F)c(Br)c2=O)c1 | 0.969 | 0.826 | 0.759 | 0.872
CC(C)C[C@H](NC(=O)CNC(=O)c1cc(Cl)ccc1Cl)B1OC(=O)C(CC(=O)O)(CC(=O)O)O1 | 0.13 | 0.0935 | 0.0814 | 0.0756
CC[C@@H](CO)NCCN[C@@H](CC)CO [Ethambutol HCl] | 1.11 | 1.1 | 0.838 | 1.1
CCN(CC)CCCCNc1ncc2cc(-c3cc(OC)cc(OC)c3)c(NC(=O)NC(C)(C)C)nc2n1 | 1.08 | 0.934 | 0.347 | 0.357
CCCOc1ccc(C(=O)OCCN(CC)CC)cc1N [Proparacaine HCl] | 1.04 | 0.953 | 0.991 | 0.996
CC(=O)OCC(=O)[C@H]1CC[C@H]2[C@@H]3CCC4=CC(=O)CC[C@]4(C)[C@H]3CC[C@]12C [Deoxycorticosterone acetate] | 0.872 | 1.13 | 0.785 | 1.06
Cn1cc(-c2ccc3c(c2)CCN3C(=O)Cc2cccc(C(F)(F)F)c2)c2c(N)ncnc21 | 0.883 | 1.04 | 0.492 | 0.477
Oc1cccc(-c2nc(N3CCOCC3)c3oc4ncccc4c3n2)c1 | 0.305 | 0.288 | 0.213 | 0.223
N#C/C(=C\c1ccc(O)c(O)c1)C(=O)NCc1ccccc1 [AG-490 (Tyrphostin B42)] | 0.921 | 1.01 | 0.84 | 0.99
C#C[C@]1(O)CC[C@H]2[C@@H]3CCC4=CC(=O)CC[C@@H]4[C@H]3CC[C@@]21CC [Levonorgestrel] | 0.936 | 1.15 | 0.851 | 1.08
O=C(/C=C/c1ccc(O)c(O)c1)O[C@@H]1C[C@](O)(C(=O)O)C[C@@H](O)[C@H]1O [Chlorogenic Acid] | 0.91 | 0.956 | 0.88 | 1.09
C[C@@H]1COC(Nc2ccc3ncnc(Nc4ccc(OCc5nccs5)c(Cl)c4)c3c2)=N1 [Varlitinib] | 1.34 | 1.16 | 0.358 | 0.345
CC/C(=C(/CC)c1ccc(O)cc1)c1ccc(O)cc1 [Diethylstilbestrol] | 0.885 | 1.14 | 0.688 | 0.952
CC1=C(/C=C/C(C)=C/C=C/C(C)=C\C(=O)O)C(C)(C)CCC1 [Isotretinoin] | 1.01 | 1.08 | 0.71 | 1.07
NC(N)=Nc1nc(CSCC/C(N)=N/S(N)(=O)=O)cs1 [Famotidine] | 1.11 | 1.07 | 0.882 | 1.03
C/C(=C\c1ccc(C(=O)O)cc1)c1ccc2c(c1)C(C)(C)CCC2(C)C [TTNPB (Arotinoid Acid)] | 0.924 | 1.14 | 0.81 | 1.11
COc1ccc(-c2ccc3c(N4CCOCC4)nc(N4C[C@@H](C)O[C@@H](C)C4)nc3n2)cc1CO | 0.351 | 0.377 | 0.217 | 0.232

Compound | fractional viability [1] | fractional viability [2] | fractional viability [3] | fractional viability [4]
OC(CN1CCN(c2cccc(Cl)c2)CC1)C(c1ccccc1)c1ccccc1 (stereo not drawn) | 0.96 | 1.02 | 0.831 | 1.05
CN(C)[C@@H]1C(O)=C(C(N)=O)C(=O)[C@@]2(O)C(O)=C3C(=O)c4c(O)cccc4[C@@](C)(O)[C@H]3[C@H](O)[C@@H]12 [Oxytetracycline (Terramycin)] | 0.957 | 1.04 | 0.954 | 0.951
CN(C)[C@@H]1C(O)=C(C(N)=O)C(=O)[C@@]2(O)C(O)=C3C(=O)c4c(O)cccc4[C@@](C)(O)[C@H]3[C@H](O)[C@@H]12 [Oxytetracycline Dihydrate] | 0.844 | 1.18 | 1.1 | 1.06
COc1cc(OC)c(/C=C/S(=O)(=O)Cc2ccc(OC)c(NCC(=O)O)c2)c(OC)c1 | 0.182 | 0.164 | 0.156 | 0.138
CCCCCCCc1ccc(CCc2cccc(O)c2C(=O)O)cc1 | 0.825 | 1.04 | 0.896 | 0.765
Cc1ccc([N+](=O)[O-])cc1S(=O)(=O)N(C)/N=C/c1cnc2ccc(Br)cn12 | 0.244 | 0.289 | 0.212 | 0.161
Cc1noc(C)c1-c1ccc(-c2cc(C(N)=O)c(NC(N)=O)s2)c(O[C@H]2CCNC2)c1 | 0.787 | 0.967 | 0.867 | 0.756
CN1CCN(c2c(F)cc3c(=O)c(C(=O)O)cn4c3c2OCN4C)CC1 [Marbofloxacin] | 1.13 | 1.21 | 0.971 | 1.01
CCCCCCCCCCCCc1ccc(S(=O)(=O)Nc2nncs2)cc1 | 0.997 | 1.07 | 0.843 | 0.966
CCN(CC)CCOC(=O)C(c1ccccc1)c1ccccc1 [Adiphenine HCl] | 0.978 | 1.15 | 0.867 | 1.18
OC(CCCN1CCCCC1)(c1ccccc1)c1ccccc1 [Diphenidol HCl] | 0.756 | 1.12 | 0.697 | 1.06
C[C@H]1[C@H](C)CC[C@]2(C(=O)O)CC[C@]3(C)C(=CC[C@@H]4[C@@]5(C)C[C@@H](O)[C@H](O)[C@@](C)(CO)[C@@H]5CC[C@]43C)[C@H]12 [Asiatic Acid] | 0.871 | 1.06 | 0.71 | 1.09
CCOC(=O)c1ccc(N)cc1 [Benzocaine] | 0.909 | 1.12 | 0.81 | 1.09
Cc1ncc(Cl)cc1NCc1ccc(C(=O)N[C@@H](CC2CCCC2)C(=O)NC2CC2)s1 | 0.845 | 0.992 | 0.838 | 0.778
C=CC(C)(C)c1cc(/C=C/C(=O)c2ccc(O)cc2)c(OC)cc1O [Licochalcone A] | 0.895 | 0.99 | 0.641 | 0.65
O=C(CCCCCCC(=O)Nc1ccc([C@H]2O[C@@H](CSc3nc(-c4ccccc4)c(-c4ccccc4)o3)C[C@@H](c3ccc(CO)cc3)O2)cc1)NO [Tubacin] | 0.862 | 1.16 | 0.362 | 0.316
COc1cc(C(C)=O)ccc1O [Apocynin] | 1.01 | 0.937 | 0.799 | 0.882
Nc1cc(F)ccc1NC(=O)/C=C/c1cnn(C/C=C/c2ccccc2)c1 | 0.803 | 1.06 | 0.819 | 0.94
CN(Cc1cnc2nc(N)nc(N)c2n1)c1ccc(C(=O)N[C@@H](CCC(=O)O)C(=O)O)cc1 [Methotrexate] | 0.281 | 0.368 | 0.251 | 0.36
